Reference: the supplement of paper PMC3334620
The full ranking holds about 33,000 sequences; the median of “E-score (-0.5 to 0.5)” is about -0.035, and the highest 2% start at about 0.35. Some of the results follow.

Biological target: T1, Pdr3 (UniProt P33200)
T1 sequence: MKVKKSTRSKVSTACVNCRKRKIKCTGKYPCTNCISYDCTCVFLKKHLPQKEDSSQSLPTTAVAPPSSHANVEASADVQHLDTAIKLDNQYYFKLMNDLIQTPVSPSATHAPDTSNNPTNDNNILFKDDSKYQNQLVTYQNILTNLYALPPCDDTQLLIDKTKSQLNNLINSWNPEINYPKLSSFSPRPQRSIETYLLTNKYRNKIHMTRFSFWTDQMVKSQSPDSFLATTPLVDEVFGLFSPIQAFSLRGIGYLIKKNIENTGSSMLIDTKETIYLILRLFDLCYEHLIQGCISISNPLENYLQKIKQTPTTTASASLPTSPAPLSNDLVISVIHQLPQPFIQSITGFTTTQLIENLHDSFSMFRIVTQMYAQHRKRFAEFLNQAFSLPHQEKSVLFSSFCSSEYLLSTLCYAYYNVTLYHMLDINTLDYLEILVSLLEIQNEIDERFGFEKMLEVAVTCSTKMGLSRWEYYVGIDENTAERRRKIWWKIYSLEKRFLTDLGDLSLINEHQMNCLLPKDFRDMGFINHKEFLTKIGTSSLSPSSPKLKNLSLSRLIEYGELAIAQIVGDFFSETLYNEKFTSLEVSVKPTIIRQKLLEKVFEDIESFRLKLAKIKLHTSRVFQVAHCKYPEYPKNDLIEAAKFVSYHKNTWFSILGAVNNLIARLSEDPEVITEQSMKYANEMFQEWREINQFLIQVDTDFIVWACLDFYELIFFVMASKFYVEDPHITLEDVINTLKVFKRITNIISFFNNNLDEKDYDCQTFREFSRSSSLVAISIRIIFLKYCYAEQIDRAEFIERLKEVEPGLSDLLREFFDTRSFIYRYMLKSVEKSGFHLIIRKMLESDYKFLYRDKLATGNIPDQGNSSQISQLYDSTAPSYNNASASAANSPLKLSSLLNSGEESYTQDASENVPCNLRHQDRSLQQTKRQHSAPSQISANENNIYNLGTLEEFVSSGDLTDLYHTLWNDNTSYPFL
Test: PBM E-score (8-mer binding enrichment) (E-score (-0.5 to 0.5)); higher = stronger / more preferred TF binding; most listed sequences are background and not binding sites
Details: protein concentration: 200 nM; construct: GST-full length
In short: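 Yeast transcription factors, full-length or as DNA-binding domains, were expressed with a GST tag using PURExpress in vitro transcription/translation. At about 100-200 nM they were applied to universal all-10-mer Agilent arrays, double-stranded by primer extension on fresh or once-stripped slides. Fluorescent anti-GST detected bound protein, and masliner normalised the scans. E-scores for ungapped eight-base words, pooled with reverse complements, came from the Universal PBM Analysis Suite.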

First: ATGGTCTA
Second: CTATTAGA
The “PBM E-score” value of the first is higher: -0.193 for the first, -0.258 for the second.

Compared with GAAACGTC, TCTGAACA is lower in “PBM E-score” value: -0.00886 for the first, -0.0452 for the second.

Compared with CCTGCTTA, CTGCTGTA is lower in “PBM E-score” value: -0.18 for the first, -0.218 for the second.

Going from GAGATGTA to GAAGAAGA, the “PBM E-score” value rises from -0.0787 to -0.0261.

Going from AAACTGCT to CGGGGTGC, the “PBM E-score” value rises from -0.188 to 0.221.

Going from AAACTGTC to ATCCCCTC, the “PBM E-score” value falls from -0.121 to -0.151.

Compared with CGTACGAA, CTTGTTAA is higher in “PBM E-score” value: -0.0596 for the first, -0.0167 for the second.

Compared with AACTGCCT, GATTTTCC is higher in “PBM E-score” value: 0.0192 for the first, 0.175 for the second.

Compared with AAACTGAC, TCGGTCCA is higher in “PBM E-score” value: -0.081 for the first, -0.0553 for the second.

Going from GTACTGTA to ATGGCGAC, the “PBM E-score” value rises from -0.0989 to -0.0736.

First: ACTAATAG
Second: ACGAACTA
The “PBM E-score” value of the first is lower: -0.0277 for the first, 0.0052 for the second.

Going from CTCTTCAA to CTACGGTA, the “PBM E-score” value rises from -0.188 to 0.0438.

First: AAGCTCCG
Second: AGCGAAGA
The “PBM E-score” value of the first is higher: 0.341 for the first, -0.201 for the second.

Going from AAACACAG to TCGTCAAA, the “PBM E-score” value falls from -0.0271 to -0.0356.

Compared with CCCGTTAC, CAATCTCA is lower in “PBM E-score” value: 0.076 for the first, -0.135 for the second.

Compared with AAACCAGT, CGGCCGCA is higher in “PBM E-score” value: -0.227 for the first, 0.323 for the second.

Compared with AACTCCAT, GCGGTTCC is higher in “PBM E-score” value: 0.0398 for the first, 0.293 for the second.

Going from AAACGCGT to GCAGCCAC, the “PBM E-score” value rises from 0.0229 to 0.0849.

Compared with ATACTCCA, CCCGGTTA is higher in “PBM E-score” value: -0.0793 for the first, 0.115 for the second.

First: ACCCTGTG
Second: CGAACTCA
The “PBM E-score” value of the first is lower: -0.111 for the first, 0.0257 for the second.

First: GCACGACA
Second: TCGAGAGA
The “PBM E-score” value of the first is lower: -0.208 for the first, -0.112 for the second.

First: ACGGAATC
Second: AAAAGTCG
The “PBM E-score” value of the first is higher: 0.465 for the first, 0.0902 for the second.

Going from GTGATTAA to GATTCTAC, the “PBM E-score” value rises from -0.0262 to 0.0673.

Compared with CTACCTAG, AAGGTAAT is higher in “PBM E-score” value: -0.311 for the first, 0.02 for the second.

First: CGAGGGAC
Second: AACTGGCG
The “PBM E-score” value of the first is lower: -0.18 for the first, 0.115 for the second.

First: AATATTTC
Second: AGTTTGCG
The “PBM E-score” value of the first is lower: 0.0855 for the first, 0.104 for the second.

Going from TAGGAGCA to CTGCCCTA, the “PBM E-score” value rises from -0.304 to -0.0448.

First: AAGAATGG
Second: CGATCGTA
The “PBM E-score” value of the first is higher: 0.0896 for the first, -0.0413 for the second.

First: GATGTCGA
Second: CTAAGCCC
The “PBM E-score” value of the first is higher: 0.0591 for the first, -0.0716 for the second.

First: GCCTGAGA
Second: AAGAACTC
The “PBM E-score” value of the first is higher: -0.0349 for the first, -0.0426 for the second.

First: ATGTCATG
Second: GCAAGCAC
The “PBM E-score” value of the first is higher: -0.0275 for the first, -0.347 for the second.

First: TATACACA
Second: CGAGACCA
The “PBM E-score” value of the first is lower: -0.176 for the first, 0.00775 for the second.

Compared with CGTCACAA, ATTCGTAA is lower in “PBM E-score” value: -0.023 for the first, -0.105 for the second.

Compared with ATCATGTA, GATACCGC is higher in “PBM E-score” value: -0.246 for the first, 0.23 for the second.

Compared with CAGTTAGA, CTACAAGC is higher in “PBM E-score” value: -0.171 for the first, -0.0653 for the second.

Going from GGTAGCGA to CTCGTTCC, the “PBM E-score” value rises from 0.0424 to 0.268.

Compared with ACAAAATG, ATACGCTG is higher in “PBM E-score” value: -0.0212 for the first, 0.00053 for the second.

First: TCCTATCA
Second: ATTCTATA
The “PBM E-score” value of the first is lower: -0.175 for the first, -0.0384 for the second.

Compared with CATGGGCG, CTAAGGTC is lower in “PBM E-score” value: 0.158 for the first, -0.232 for the second.

First: GGACGAGA
Second: AGATCCTG
The “PBM E-score” value of the first is higher: 0.119 for the first, -0.186 for the second.

Compared with CAGTACCA, GTTACGCA is higher in “PBM E-score” value: -0.219 for the first, -0.0849 for the second.

Going from CCGCATCA to CAGTGGAA, the “PBM E-score” value falls from 0.179 to -0.109.

Going from CCTTAACC to AATTGACG, the “PBM E-score” value rises from -0.256 to -0.0255.
